The supplement of paper PMC4604168 (melanoma cell lines)
Some of the results follow. Single values are uncertain, as repeats are few or missing.

Legend:
Assay in all cases: cell count relative to DMSO control; melanoma cells; higher = more viable cells
Conditions in all cases: library dose: low library concentration; 72 h
MZ2-MEL = test system: MZ2-MEL
MeWo = test system: MeWo
RPMI7951 = test system: RPMI7951
RVH-421 = test system: RVH-421
SkMel28 = test system: SkMel28
SkMel2 = test system: SkMel2
SkMel30 = test system: SkMel30
SkMel5 = test system: SkMel5
UACC257 = test system: UACC257
UACC62 = test system: UACC62
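Also: cell number obtained by counting DAPI-stained nuclei in high-throughput microscope images with image analysis software, screen run in 1,536-well plates.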

SMILES	cell count (MZ2-MEL) [%]	cell count (MeWo) [%]	cell count (RPMI7951) [%]	cell count (RVH-421) [%]	cell count (SkMel28) [%]	cell count (SkMel2) [%]	cell count (SkMel30) [%]	cell count (SkMel5) [%]	cell count (UACC257) [%]	cell count (UACC62) [%]
Cc1cc(Nc2cc(N3CCN(C)CC3)nc(/C=C/c3ccccc3)n2)n[nH]1 + C[C@@H]1CCN(C(=O)CC#N)C[C@@H]1N(C)c1ncnc2[nH]ccc12 [CP690550] (first compound 0.04 µM, partner dose 1 µM)	103	94.7	120	90.1	92.3	90.8	97.3	108	114	89.2
CC(C)C[C@H](NC(=O)[C@H](Cc1ccccc1)NC(=O)c1cnccn1)B(O)O [Bortezomib] + OCCn1cc(-c2cnc3nnn(Cc4ccc5ncccc5c4)c3n2)cn1 [PF04217903] (first compound 0.001 µM, partner dose 1 µM)	96.9	90	99.5	76.9	96.2	88.3	94.2	90.4	86.5	78
Cc1cc(Nc2cc(N3CCN(C)CC3)nc(/C=C/c3ccccc3)n2)n[nH]1 + CCc1ccc(CCOc2ccc(CC3SC(=O)NC3=O)cc2)nc1 [pioglitazone] (first compound 0.04 µM, partner dose 2 µM)	101	115	91.3	77.6	87.4	101	98.2	92.5	101	97.5
Cc1cn(-c2cc(NC(=O)c3ccc(C)c(Nc4nccc(-c5cccnc5)n4)c3)cc(C(F)(F)F)c2)cn1 [nilotinib] + Oc1cc(-c2nc(-c3ccccc3)[nH]c2-c2ccncc2)ccc1Cl [L779450] (first compound 0.2 µM, partner dose 0.2 µM)	83.6	106	112	83.5	84.9	0.962	103	106	93.8	72
Cn1c(=O)n(-c2ccc(C(C)(C)C#N)cc2)c2c3cc(-c4cnc5ccccc5c4)ccc3ncc21 + O=c1cc(-c2cccc3c2Sc2ccccc2S3)oc(N2CCOCC2)c1 [KU55933] (first compound 0.004 µM, partner dose 1 µM)	110	82.9	92.4	99.3	72.1	98.2	81.8	111	93	90.5
COc1ccc(C2=N[C@@H](c3ccc(Cl)cc3)[C@@H](c3ccc(Cl)cc3)N2C(=O)N2CCNC(=O)C2)c(OC(C)C)c1 [Nutlin-3] + CCN(CC)CCCCNc1ncc2cc(-c3cc(OC)cc(OC)c3)c(NC(=O)NC(C)(C)C)nc2n1 [PD173074] (first compound 0.1 µM, partner dose 0.1 µM)	101	102	105	74.1	78.2	97.4	93.3	80	84.5	72.9
COc1ccc(C2=N[C@@H](c3ccc(Cl)cc3)[C@@H](c3ccc(Cl)cc3)N2C(=O)N2CCNC(=O)C2)c(OC(C)C)c1 [Nutlin-3] + O=S(=O)(c1ccccc1)N(CC(F)(F)F)c1ccc(C(O)(C(F)(F)F)C(F)(F)F)cc1 [T0901317] (first compound 0.1 µM, partner dose 1.4 µM)	88.9	97.5	84.3	58.4	89.3	101	97.2	83	105	84.1
Cn1c(=O)n(-c2ccc(C(C)(C)C#N)cc2)c2c3cc(-c4cnc5ccccc5c4)ccc3ncc21 + O=C(CCCCCCC(=O)Nc1ccccc1)NO [vorinostat] (first compound 0.004 µM, partner dose 0.08 µM)	101	89.1	97.7	104	71	84.5	104	90.7	101	86.1
COc1ccc(C2=N[C@@H](c3ccc(Cl)cc3)[C@@H](c3ccc(Cl)cc3)N2C(=O)N2CCNC(=O)C2)c(OC(C)C)c1 [Nutlin-3] + O=C(CCCCCCC(=O)Nc1ccccc1)NO [vorinostat] (first compound 0.1 µM, partner dose 0.08 µM)	97.2	92.8	103	92.6	95.6	87.8	107	99.3	84.6	88.1
Cc1cc(Nc2cc(N3CCN(C)CC3)nc(/C=C/c3ccccc3)n2)n[nH]1 + O=C(Nc1ccccc1)c1cc([N+](=O)[O-])ccc1Cl [GW9662] (first compound 0.04 µM, partner dose 2 µM)	91.8	89.3	90.4	123	96.3	96.8	90.4	97.2	123	72
Cc1cn(-c2cc(NC(=O)c3ccc(C)c(Nc4nccc(-c5cccnc5)n4)c3)cc(C(F)(F)F)c2)cn1 [nilotinib] + O=C(CCCCCCC(=O)Nc1ccccc1)NO [vorinostat] (first compound 0.2 µM, partner dose 0.08 µM)	99.7	98.7	92.7	99.2	76.7	92.9	112	91.5	86.7	87.9
Cc1cc(Nc2cc(N3CCN(C)CC3)nc(/C=C/c3ccccc3)n2)n[nH]1 + CC(C)CCN1c2nc(Nc3cc(F)c(O)c(F)c3)ncc2N(C)C(=O)C1C [BID1870] (first compound 0.04 µM, partner dose 0.2 µM)	101	86.9	98.9	78.9	85.6	91.1	89.4	105	80.6	79.3
Cc1cn(-c2cc(NC(=O)c3ccc(C)c(Nc4nccc(-c5cccnc5)n4)c3)cc(C(F)(F)F)c2)cn1 [nilotinib] + CC(C)(C)c1cnc(CSc2cnc(NC(=O)C3CCNCC3)s2)o1 [SNS-032] (first compound 0.2 µM, partner dose 0.01 µM)	95.4	119	90.3	72.1	99.5	97.1	92.1	99.2	91.7	86.1
COc1ccc(C2=N[C@@H](c3ccc(Cl)cc3)[C@@H](c3ccc(Cl)cc3)N2C(=O)N2CCNC(=O)C2)c(OC(C)C)c1 [Nutlin-3] + Cc1cc(N2CCOCC2)cc2[nH]c(-c3c(NC[C@@H](O)c4cccc(Cl)c4)cc[nH]c3=O)nc12 [BMS536924] (first compound 0.1 µM, partner dose 0.2 µM)	99.1	95.1	120	109	102	74.1	74	91	80.1	94.2
CC(C)C[C@H](NC(=O)[C@H](Cc1ccccc1)NC(=O)c1cnccn1)B(O)O [Bortezomib] + C=CCn1c(=O)c2cnc(Nc3ccc(N4CCN(C)CC4)cc3)nc2n1-c1cccc(C(C)(C)O)n1 [MK1775] (first compound 0.001 µM, partner dose 0.02 µM)	96.3	81.5	66	64.1	79.5	92.7	89.4	95.8	86.2	69.3
COc1ccc(C2=N[C@@H](c3ccc(Cl)cc3)[C@@H](c3ccc(Cl)cc3)N2C(=O)N2CCNC(=O)C2)c(OC(C)C)c1 [Nutlin-3] + CO[C@@H]1[C@H](N(C)C(=O)c2ccccc2)C[C@H]2O[C@]1(C)n1c3ccccc3c3c4c(c5c6ccccc6n2c5c31)C(=O)NC4 [Midostaurin] (first compound 0.1 µM, partner dose 0.08 µM)	93.8	92.3	97.2	71.3	92.6	87	106	89.6	90.4	82.8
Cn1c(=O)n(-c2ccc(C(C)(C)C#N)cc2)c2c3cc(-c4cnc5ccccc5c4)ccc3ncc21 + O=S(=O)(c1ccccc1)N(CC(F)(F)F)c1ccc(C(O)(C(F)(F)F)C(F)(F)F)cc1 [T0901317] (first compound 0.004 µM, partner dose 1.4 µM)	101	74.7	79.9	60.1	76.7	86.1	69.9	98.3	80.7	76.2
COc1ccc(C2=N[C@@H](c3ccc(Cl)cc3)[C@@H](c3ccc(Cl)cc3)N2C(=O)N2CCNC(=O)C2)c(OC(C)C)c1 [Nutlin-3] + O=c1cc(-c2cccc3c2Sc2ccccc2S3)oc(N2CCOCC2)c1 [KU55933] (first compound 0.1 µM, partner dose 1 µM)	99.5	91.5	113	87.4	96.3	96	103	95.5	89.9	87.9
CC(C)C[C@H](NC(=O)[C@H](Cc1ccccc1)NC(=O)c1cnccn1)B(O)O [Bortezomib] + COc1cc(N2CCC(N3CCN(C)CC3)CC2)ccc1Nc1ncc(Cl)c(Nc2ccccc2S(=O)(=O)C(C)C)n1 [NVP-TAE684] (first compound 0.001 µM, partner dose 0.08 µM)	90.4	73.3	82.5	56.2	61.6	87.2	72.3	90.2	53.8	90.1
Cc1cc(Nc2cc(N3CCN(C)CC3)nc(/C=C/c3ccccc3)n2)n[nH]1 + CCCCCCCCCCCC1=C(O)C(=O)C=C(O)C1=O [Embelin] (first compound 0.04 µM, partner dose 1.2 µM)	103	107	120	107	77.3	105	99.5	108	79.3	82.3
COc1ccc(C2=N[C@@H](c3ccc(Cl)cc3)[C@@H](c3ccc(Cl)cc3)N2C(=O)N2CCNC(=O)C2)c(OC(C)C)c1 [Nutlin-3] + OCCn1cc(-c2cnc3nnn(Cc4ccc5ncccc5c4)c3n2)cn1 [PF04217903] (first compound 0.1 µM, partner dose 1 µM)	110	94	87.8	108	83.5	100	95.5	91.6	87.9	95.5
